Results as given in the supplement of paper PMC6657886.
MIC of clinical N. gonorrhoeae isolates (2015-2017) by agar dilution on GC agar with 1% IsoVitaleX (ranges not stated); higher = less susceptible. No active / inactive call per row; the paper counts benzylpenicillin above 1 and ceftriaxone above 0.125 mg/L as resistant (EUCAST). The method is stated for benzylpenicillin and ceftriaxone and assumed for the other drugs. '<=' is inferred from pile-ups at the end values. Isolates are numbered anew.

How the values were obtained:
Test in all cases: Agar dilution on enriched GC agar; resistance determinants by microarray.
tetracycline = compound: CN(C)[C@@H]1C(O)=C(C(N)=O)C(=O)[C@@]2(O)C(O)=C3C(=O)c4c(O)cccc4[C@@](C)(O)[C@H]3C[C@@H]12 [tetracycline]
azithromycin = compound: CC[C@H]1OC(=O)[C@H](C)[C@@H](O[C@H]2C[C@@](C)(OC)[C@@H](O)[C@H](C)O2)[C@H](C)[C@@H](O[C@@H]2O[C@H](C)C[C@H](N(C)C)[C@H]2O)[C@](C)(O)C[C@@H](C)CN(C)[C@H](C)[C@@H](O)[C@]1(C)O [azithromycin]
ceftriaxone = compound: CO/N=C(\C(=O)N[C@@H]1C(=O)N2C(C(=O)O)=C(CSc3nc(=O)c(O)nn3C)CS[C@H]12)c1csc(N)n1 [ceftriaxone]
spectinomycin = compound: CN[C@@H]1[C@H](O)[C@H](NC)[C@H]2O[C@@]3(O)C(=O)C[C@@H](C)O[C@H]3O[C@@H]2[C@H]1O [spectinomycin]
benzylpenicillin = compound: CC1(C)S[C@@H]2[C@H](NC(=O)Cc3ccccc3)C(=O)N2[C@H]1C(=O)O [benzylpenicillin]

Test System | MIC (tetracycline) | MIC (azithromycin) | MIC (ceftriaxone) | MIC (spectinomycin) | MIC (benzylpenicillin)
Neisseria gonorrhoeae isolate 325 (blaTEM plasmid: no, gyrA: wild type, mtrR promoter: wild type, parC: wild type, penA: wild type, ponA: wild type, porB: wild type, rpsJ: wild type, tetM plasmid: no) | 0.5 µg/mL | 0.06 µg/mL | ≤ 0.002 µg/mL | 32 µg/mL | ≤ 0.015 µg/mL
Neisseria gonorrhoeae isolate 53 (blaTEM plasmid: no, gyrA: Phe91, Gly95, mtrR promoter: wild type, parC: Arg87, Glu91, penA: ins345Asp, ponA: Pro421, porB: Asp120, Ala121, rpsJ: Met57, tetM plasmid: no) | 0.5 µg/mL | 0.015 µg/mL | 0.015 µg/mL | 32 µg/mL | 0.25 µg/mL
Neisseria gonorrhoeae isolate 52 (blaTEM plasmid: yes, gyrA: Phe91, Asn95, mtrR promoter: wild type, parC: Asn87, Gly91, penA: wild type, ponA: Pro421, porB: wild type, rpsJ: Met57, tetM plasmid: yes) | 64 µg/mL | 0.25 µg/mL | 0.06 µg/mL | 32 µg/mL | ≥ 32 µg/mL
Neisseria gonorrhoeae isolate 398 (blaTEM plasmid: no, gyrA: Phe91, Asn95, mtrR promoter: -35delA, parC: Arg87, Glu91, penA: ins345Asp, ponA: Pro421, porB: Lys 120, Asn 121, rpsJ: Met57, tetM plasmid: no) | 2 µg/mL | 0.12 µg/mL | 0.015 µg/mL | 8 µg/mL | 0.5 µg/mL
Neisseria gonorrhoeae isolate 340 (blaTEM plasmid: no, gyrA: wild type, mtrR promoter: wild type, parC: wild type, penA: ins345Asp, ponA: Pro421, porB: wild type, rpsJ: Met57, tetM plasmid: no) | 0.5 µg/mL | 0.12 µg/mL | 0.004 µg/mL | 8 µg/mL | 0.12 µg/mL
Neisseria gonorrhoeae isolate 377 (blaTEM plasmid: no, gyrA: wild type, mtrR promoter: wild type, parC: wild type, penA: wild type, ponA: wild type, porB: wild type, rpsJ: wild type, tetM plasmid: no) | 0.06 µg/mL | 0.015 µg/mL | ≤ 0.002 µg/mL | 32 µg/mL | ≤ 0.015 µg/mL
Neisseria gonorrhoeae isolate 337 (blaTEM plasmid: no, gyrA: Phe91, Asn95, mtrR promoter: -35delA, parC: wild type, penA: wild type, ponA: Pro421, porB: wild type, rpsJ: Met57, tetM plasmid: no) | 0.25 µg/mL | 0.06 µg/mL | ≤ 0.002 µg/mL | 32 µg/mL | ≤ 0.015 µg/mL
Neisseria gonorrhoeae isolate 2 (blaTEM plasmid: yes, gyrA: Phe91, Ala 95, mtrR promoter: wild type, parC: Asn 87, Lys91, penA: ins345Asp, ponA: Pro421, porB: Asp120, Ala121, rpsJ: wild type, tetM plasmid: yes) | 32 µg/mL | 0.06 µg/mL | 0.015 µg/mL | 16 µg/mL | 16 µg/mL
Neisseria gonorrhoeae isolate 267 (blaTEM plasmid: no, gyrA: Thr91, Gly95, mtrR promoter: -35delA, parC: wild type, penA: ins345Asp, ponA: wild type, porB: Asn120, Asp121, rpsJ: Met57, tetM plasmid: no) | 2 µg/mL | 0.5 µg/mL | 0.008 µg/mL | 32 µg/mL | 0.25 µg/mL
Neisseria gonorrhoeae isolate 167 (blaTEM plasmid: no, gyrA: Thr 91, Asp95, mtrR promoter: wild type, parC: wild type, penA: ins345Asp, ponA: wild type, porB: Gly120, Asp121, rpsJ: wild type, tetM plasmid: no) | 0.5 µg/mL | 0.25 µg/mL | ≤ 0.002 µg/mL | 32 µg/mL | 0.12 µg/mL
Neisseria gonorrhoeae isolate 283 (blaTEM plasmid: no, gyrA: wild type, mtrR promoter: wild type, parC: wild type, penA: ins345Asp, ponA: wild type, porB: wild type, rpsJ: Met57, tetM plasmid: no) | 1 µg/mL | 0.12 µg/mL | ≤ 0.002 µg/mL | 16 µg/mL | ≤ 0.015 µg/mL
